# Some of the results follow.
# Tested on: T1, Caupolican (Caup) homeodomain DNA-binding domain
# T1 sequence: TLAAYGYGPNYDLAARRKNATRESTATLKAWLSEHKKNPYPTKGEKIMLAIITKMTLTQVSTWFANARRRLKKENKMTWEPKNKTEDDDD
# Test: PBM E-score (8-mer, recovered from the published 9-mer minima) (E-score (dimensionless, -0.5 to 0.5)); Drosophila protein; higher = stronger relative binding preference, active = 0.31 or more
# How it was run: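 An enrichment score, with higher meaning stronger, expresses relative binding preference for each short DNA word. The protein used was Caup's homeodomain DNA-binding domain (residues 214-303), produced by in vitro transcription and translation and tested at 100 nM on custom-designed protein binding microarrays. The 8-mer values were recovered from published 9-mer scores, each equal to the lower of its two constituent 8-mer scores.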
row,Sequence,PBM E-score
1,CCACGCCC,inactive: -0.293
2,ACTTGTCT,inactive: 0.267
3,ATTCTCCA,inactive: 0.00731
4,AGACGGGA,inactive: -0.0718
5,ACTAACTC,inactive: -0.00618
6,ACGTCGAT,≥ 0.065
7,CCGTCATA,inactive: -0.0609
8,CAATTAGC,inactive: 0.00801
9,ACACTTTA,≥ 0.17
10,CTGATAAG,inactive: 0.0562
11,TACCATGA,inactive: 0.0158
12,AGGGCCCG,inactive: -0.246
13,GTCTTTCA,inactive: -0.0676
14,ACCAATCA,inactive: 0.122
15,ACGTTTGC,inactive: 0.00181
16,CGAGAAAC,inactive: -0.0514
17,ATCGGGAG,inactive: -0.0742
18,AACCGCTT,inactive: 0.00313
19,ATTCGCTG,inactive: 0.0251
20,GACCGCGC,inactive: -0.169
21,AAGCGGAC,inactive: -0.153
22,CACGGTGG,inactive: 0.0613
23,ACCGGGGC,inactive: -0.212
24,GCGAAGTA,inactive: -0.0099

row,Sequence,PBM E-score
1,ACAATGAG,inactive: 0.0755
2,CCACGCTC,inactive: -0.249
3,ACGGTGAC,inactive: 0.0442
4,ATCGACAC,inactive: 0.203
5,CTTCACAA,inactive: -0.0159
6,ATATGCAG,inactive: 0.00703
7,GCTGGTCA,inactive: -0.059
8,ATGGTGGA,inactive: -0.0319
9,CCGTTTAG,inactive: -0.13
10,AACTGTCT,inactive: 0.0127
11,AGGGTCGA,inactive: -0.131
12,AGCAGTGA,inactive: 0.0041
13,CCTCAAAG,inactive: -0.148
14,AGTGAGTC,inactive: 0.0484
15,ACCTCAGT,inactive: -0.00921
16,CAATTTGC,inactive: -0.0334
17,GCCCTTCC,inactive: -0.169
18,ATTTAGAG,inactive: 0.00973
19,AAGCGTTA,inactive: 0.0271
20,ATCGGACC,inactive: -0.0566
21,GACGCCAC,inactive: -0.11
22,AAGGAAGC,inactive: -0.142
23,TAGAACCA,inactive: 0.0285
24,ACCCCGCG,inactive: -0.173

row,Sequence,PBM E-score
1,GTAGCAGA,inactive: 0.0578
2,CCCCCAAC,inactive: -0.254
3,CCTGTGGA,inactive: -0.106
4,GCAAGATA,inactive: 0.0639
5,ATGCCGGC,inactive: -0.134
6,GCGACCGC,inactive: -0.261
7,ACGCTAAC,inactive: -0.0131
8,AGAGGTGC,inactive: -0.134
9,CAGGCACA,inactive: -0.0333
10,CTAGATGA,inactive: -0.0284
11,GTAATAAC,inactive: 0.26
12,GAGGTTTA,inactive: -0.0507
13,GTGCTGGA,inactive: -0.0566
14,ACAATAGT,inactive: 0.206
15,AAGAATAA,inactive: 0.129
16,ACATCGGC,inactive: 0.134
17,GCATTCAC,inactive: -0.00731
18,GCAAAGAC,inactive: -0.0679
19,AAACTTCG,inactive: -0.0286
20,AACAGACG,inactive: 0.0277
21,AATGCCAC,inactive: -0.119
22,CCAGACGA,inactive: -0.0846
23,ATCTGGCA,inactive: -0.0652
24,ACGGCAAG,inactive: -0.0241

row,Sequence,PBM E-score
1,ACTTGGAA,inactive: -0.0157
2,AAGGAGCT,inactive: -0.12
3,CTACATGC,active: 0.369
4,GTCGTATA,inactive: 0.165
5,ACCAGAGC,inactive: -0.0284
6,AAGAATAG,inactive: 0.0169
7,AATGGAAC,inactive: 0.0496
8,CGAAAGCG,inactive: -0.0814
9,GCGACCCC,inactive: -0.269
10,ACTTGGCG,inactive: -0.128
11,AGTTGGTA,inactive: 0.132
12,AACTCAAG,inactive: 0.0468
13,AGGGCTCC,inactive: -0.298
14,CCTTGTCG,inactive: 0.277
15,ATCTCATG,inactive: 0.127
16,GGGACATA,inactive: 0.113
17,GGCACGAA,inactive: -0.0704
18,ACTGGAGC,inactive: -0.152
19,CGTCGTAC,inactive: 0.177
20,AATTCAGA,≥ 0.107
21,CGACAAAC,inactive: 0.141
22,CAGATCTG,inactive: 0.026
23,AATTAAGT,inactive: 0.129
24,CAATGCTG,inactive: -0.0134

row,Sequence,PBM E-score
1,GGAGTACA,inactive: 0.194
2,CTTGGCAA,inactive: -0.0287
3,CACGGGGG,inactive: -0.25
4,TGACCTCA,inactive: -0.0931
5,CAAAAGCG,inactive: -0.0894
6,ACAAAACT,inactive: 0.184
7,GGAATTCA,≥ 0.0935
8,AGCGTGTA,active: 0.355
9,ACAGTGTG,inactive: 0.0332
10,AATCTAGG,inactive: 0.0382
11,CCTCAATC,inactive: 0.0037
12,ACATAATA,active: 0.323
13,GTGGGTGA,inactive: -0.113
14,GAAACCGA,inactive: -0.0482
15,ACTGATGA,inactive: 0.122
16,GAATAGAC,inactive: 0.0519
17,GTTGATCA,inactive: 0.19
18,CCAAAAGG,inactive: -0.148
19,CTGATCAA,inactive: 0.0558
20,CATCGGAG,inactive: -0.0367
21,CTGCAAGC,inactive: -0.102
22,CCAGCAGA,inactive: -0.105
23,GTACCCTA,inactive: 0.0117
24,AACGTCTT,inactive: 0.0218

row,Sequence,PBM E-score
1,GCATCAGA,inactive: 0.121
2,AAATTAAA,inactive: 0.131
3,GTCTCCGA,inactive: -0.0444
4,ACTGGCCA,≥ -0.0226
5,ACGAAACA,inactive: 0.188
6,AATCTGCC,inactive: -0.0243
7,GTCTGCCA,inactive: -0.0852
8,TATAAACA,inactive: 0.308
9,CGCTGACG,inactive: -0.118
10,TATGTGCA,inactive: 0.151
11,AAGGCGCT,inactive: -0.0654
12,CGCTGCAA,inactive: -0.0648
13,CAGTTTGA,inactive: 0.097
14,GCCGCTCC,inactive: -0.255
15,CCCCGGAG,inactive: -0.246
16,GTCACAAA,inactive: 0.124
17,AATTCTCT,inactive: -0.117
18,CGCTCAAA,inactive: -0.0531
19,CACTGACG,inactive: -0.0888
20,GATAATTA,inactive: 0.158
21,AACTGCTG,inactive: -0.0391
22,AGAGGGTA,inactive: -0.0861

# From the supplement of paper PMC3724861
